Test results taken from PubChem BioAssay AID493208 (National Center for Advancing Translational Sciences (NCATS), 2011).
Out of some 44,000 compounds screened, about 340 (0.77%) were called active. Not shown: some 5% with an inconclusive outcome. Calls come from the whole dose curve; as a rule, active = well fitted inhibition curve with a large enough effect; inconclusive = small, poorly fitted or top-dose-only effect; inactive = flat fitted curve, though single readings scatter. This is one part of the list.

test: Acumen qHTS Assay for Inhibitors of the mTORC1 Signaling Pathway in MEF (Tsc2-/-, p53-/-) Cells: Sytravon; details: phospho-rpS6 immunofluorescence/PI, 24 h; series mostly up to 38.3 µM; activity change, negative = inhibition: at the top concentration;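 note: plate controls were DMSO for no effect and rapamycin for full effect; nearly all actives have a fitted effect of over 50% in size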
How it was run: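 Tsc2-/-, p53-/- mouse embryonic fibroblasts (empty-vector line) exposed to compound 24 hrs at 37 C, fixed, immunostained for phospho-rpS6 and counterstained with propidium iodide. Acumen laser scanning gives % positive cells from Alexa 488/PI ratio, thresholded using 7.5 nM rapamycin; PI count gives viability.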

Activity change, negative = inhibition, inactive:
CCC(=O)N1c2ccc(S(=O)(=O)N3CCC(C)CC3)cc2CC1C (configuration not stated) -18%, O=C(CC1C(=O)OCCN1Cc1ccccc1)Nc1ccc(F)cc1 (configuration not stated) -1.57%, Cc1ccc(C)c(NC(=O)Cn2cc(C(=O)c3ccc(Cl)cc3)c(=O)c3ccc(C)nc32)c1 3.33%, N#Cc1ccc(CSc2nc3c(c(=O)[nH]2)CCC3)cc1 1.27%, COc1cc(NC(=O)CSc2nc(-c3ccc(C)cc3)nc3c2Cc2ccccc2O3)cc(OC)c1 -9.37%, Cc1cccc(C)c1-n1ncc(C(=O)N2CCN(c3ccccn3)CC2)c1C1CCN(C(=O)OC(C)(C)C)CC1 5.97%, Cc1cccc(-c2nc3c4ccccc4nc(NCc4ccc(Cl)cc4)n3n2)c1 -1.56%, CC(=O)c1ccc(NC(=O)CSc2cn(CC(=O)N3CCCCCC3)c3ccccc23)cc1 -14%, COc1ccc(NC(=O)CSc2oc(-c3ccco3)nc2S(=O)(=O)c2ccc(Br)cc2)c(OC)c1 -0.108%, CCc1ccc2oc(-c3cc(NC(=O)C(C)C)cc(C)c3O)nc2c1 -0.253%, CC(C)Cn1c(=O)c2sccc2n2c(CCCC(=O)NCc3ccccc3Cl)nnc12 -1.3%, COc1cccc(CNC(=O)C2CCN(S(=O)(=O)c3cn(C)cn3)CC2)c1 9.83%, CC(=O)N1c2ccc(S(=O)(=O)N3CCCCCC3)cc2CC1C(=O)NCc1ccc(Cl)cc1 (configuration not stated) 0%, CCCOc1ccc(-c2nonc2NC(=O)c2oc3ccc(C)cc3c2C)cc1OCCC 4.82%, CCOC(=O)N1CCC(NC(=O)c2cnn(-c3cccc(Cl)c3C)c2C2CCN(C(=O)OC(C)(C)C)CC2)CC1 5.56%, Oc1ccc(Cl)cc1C1=Nc2ccccc2N=C(c2cccc(Br)c2)C1 -12.4%, CN1CCN(c2nc3c(S(=O)(=O)c4ccc(Br)cc4)nnn3c3ccsc23)CC1 -1.38%, CCc1sc(Nc2cccc(Cl)c2C)nc1-c1cc2cccc(OC)c2oc1=O -3.07%, COc1cccc(CN2CCc3nc(N4CCN(c5ncccn5)CC4)ncc3C2)c1 0%, O=C(CC1C(=O)OCCN1Cc1ccccc1)Nc1cccc(C(F)(F)F)c1 (configuration not stated) 0.287%, COc1ccc(OC)c(NC(=O)c2cc(CN3CCCC3)on2)c1 -11.7%, Cc1cccc(Cn2cccc2CNS(=O)(=O)c2ccc(Br)cc2)c1 0%, COc1ccc(-c2cc3ccc(O)c(CN4CCC(C)CC4)c3oc2=O)cc1OC 1.08%, COc1cc(-c2nnc(SCCOc3cc(C)cc(C)c3)o2)cc(OC)c1OC -11.5%, COc1ccc(S(=O)(=O)Nc2cc(S(=O)(=O)c3ccccc3)c(O)c(C)c2C)cc1 3.38%, Cc1ccccc1CN1C(=O)c2ccccc2S(=O)(=O)c2ccc(C(=O)OCC3CCCO3)cc21 (configuration not stated) -6.27%, Cc1ccc(C(C)C)c(OC(C)C(=O)NCC2(N(C)C)CCCCC2)c1 (configuration not stated) -12.4%, Cc1cc(OC(C)C(=O)Nc2sc3c(c2C(N)=O)CCCC3)ccc1Cl (configuration not stated) 1.22%, CC(NC(=O)CN1C(=O)c2cccnc2Oc2ccc(Cl)cc21)c1ccccc1 (configuration not stated) -0.182%, CCOc1ccccc1CNc1nc2nc(C)cc(C)n2n1 9.22%, O=C(NCCCN1CCN(c2ccccc2)CC1)c1ccc2nc(Cc3ccccc3)oc2c1 0%, CC(C)NC(=O)CCC(=O)N1Cc2ccccc2Oc2ncccc21 -3.74%, CCC1CCCCN1C(=O)CSc1nc2c([nH]c3ccccc32)c(=O)n1-c1ccc(OC)cc1 (configuration not stated) 2.93%, Cn1ccc2cc(S(=O)(=O)N3CCN(C(=O)Nc4ccc(F)cc4F)CC3)ccc21 -2.39%, CC1Cc2ccccc2N1S(=O)(=O)c1nnc(NC(=O)c2ccccc2)s1 (configuration not stated) 13.7%, COC(=O)c1nnn(CC(=O)NC(=O)Nc2c(C)cccc2C)c1C(=O)OC 7.9%, Cc1ccccc1C(=O)n1nc(-c2cccnc2)nc1NCc1ccccc1 -4.69%, CCCCN(CC)CCCNC(=O)c1nn(C)c2c1CSc1ccccc1-2 1.09%, COc1ccc(OC)c(CCNC(=O)Cn2ncc3c([nH]c4ccccc43)c2=O)c1 -7.05%, NS(=O)(=O)c1ccc(NC(=O)C2Cc3ccccc3N2C(=O)c2ccccc2)cc1 (configuration not stated) 4.02%, CCn1cc2nc(SCC(=O)Nc3ccccc3C(F)(F)F)n(Cc3ccc(C)cc3)c(=O)c2n1 -8.64%, COCCCNC(=O)CCC(=O)NNc1nc2ccccc2c2nc(C)nn12 -3.25%, COc1ccc(N2CC(NC(=O)C(c3ccccc3)c3ccccc3)CC2=O)cc1OC (configuration not stated) 3.23%, CC(C)Oc1ccc(-c2nc3c(C#N)c[nH]n3c2NC2CCCCC2)cc1 0%, CCOC(=O)c1c(C)oc2ncnc(Nc3ccc(OC)c(OC)c3)c12 0.132%, COc1ccc(Cn2c(=O)c3cccnc3n(Cc3cccc(F)c3)c2=O)cc1 -21.1%, COc1ccccc1CNC(=O)c1ccc2nc(CCc3ccccc3)oc2c1 -1.05%, COC(=O)c1ccc(C(=O)OC)c(NC(=O)c2ccc(-c3ccccc3)s2)c1 -16.6%, COc1ccccc1NC(=O)c1c(C)cc(C)nc1SCC(=O)c1ccc(Cl)cc1 -0.986%, CC(C)Oc1ccc(C(=O)N(Cc2ccco2)Cc2cccs2)cc1 -4.87%, CCOC(=O)c1ccccc1NC(=O)CSc1nccn1Cc1ccco1 -3.77%, Cc1cc(OCC(=O)N(Cc2ccc(N(C)C)cc2)CC2CCCO2)ccc1Cl (configuration not stated) -1.03%, Cc1cccc(C)c1NC(=O)c1sc(-n2nc(C)c(Cc3ccccc3)c2C)nc1C -6.87%, O=C(CSc1ncc(S(=O)(=O)c2ccc(Cl)cc2)c(=O)[nH]1)Nc1cccc(C(F)(F)F)c1 0.472%, COc1ccc(-c2cc3nc(C)c(CCC(=O)NC4CCCCC4)c(C)n3n2)c(OC)c1 3.67%, O=C(c1cccn1-c1nnc(N2CCCC2)s1)N1CCN(c2ccc(Cl)cc2)CC1 -2.98%, COc1cc(C2Nc3c(C)cc(C)cc3-c3cc(C)nn32)cc(OC)c1O (configuration not stated) -20.6%, Cc1ccc2c(c1)C(c1ccccc1)N(C(=O)Cc1ccc(F)cc1)CC(=O)N2 (configuration not stated) 2.04%, Cn1c(=O)[nH]c2cc(-c3noc(-c4ccc(C#N)cc4)n3)ccc21 -2.83%, CCCS(=O)(=O)NCCc1sc2nc(-c3ccc(F)cc3)nn2c1C -12%, CC(=O)Nc1ccc(S(=O)(=O)NCC2CCC(C(=O)NCCN(CC(C)C)CC(C)C)CC2)cc1 (configuration not stated) 5.13%, COc1ccc(Cn2c(C(=O)O)c(CNCCc3cc(OC)ccc3OC)c3ccc(C)cc32)cc1 -6.14%
